The list shows a part of the results.
B1: Q9UKT9 (peptide)
chain: FICPICGRPFTQKGNLLRHIKL
B2: Q9UKT9 (peptide)
chain: FWCPICGAAFTQKGNLLRHIKL
B3: Q9UKT9 (peptide)
chain: FLCEICGHIFTQKGNLLRHIKL
B4: Q9UKT9 (peptide)
chain: FDCSVCGHPFTQKGNLLRHIKL
B5: Q9UKT9 (peptide)
chain: FICPICGRVFTQKGNLLRHIKL
B6: Q9UKT9 (peptide)
chain: FFCNVCGAPFTQKGNLLRHIKL
B7: Q9UKT9 (peptide)
chain: FWCEVCGANFTQKGNLLRHIKL
B8: Q9UKT9 (peptide)
chain: FWCPICGHLFTQKGNLLRHIKL
B9: Q9UKT9 (peptide)
chain: FECDQCGANFTQKGNLLRHIKL
B10: Q9UKT9 (peptide)
chain: FKCDQCGAQFTQKGNLLRHIKL
B11: Q9UKT9 (peptide)
chain: FGCEVCGAEFTQKGNLLRHIKL
B12: Q9UKT9 (peptide)
chain: FRCNVCGAQFTQKGNLLRHIKL
B13: Q9UKT9 (peptide)
chain: FCCEVCGAEFTQKGNLLRHIKL
B14: Q9UKT9 (peptide)
chain: FLCNVCGAVFTQKGNLLRHIKL
B15: Q9UKT9 (peptide)
chain: FCCPVCGADFTQKGNLLRHIKL
B16: Q9UKT9 (peptide)
chain: FKCPVCGAVFTQKGNLLRHIKL
B17: Q9UKT9 (peptide)
chain: FWCPICGRGFTQKGNLLRHIKL
B18: Q9UKT9 (peptide)
chain: FICPQCGALFTQKGNLLRHIKL
B19: Q9UKT9 (peptide)
chain: FDCEICGHIFTQKGNLLRHIKL
B20: Q9UKT9 (peptide)
chain: FHCPICGHQFTQKGNLLRHIKL
B21: Q9UKT9 (peptide)
chain: FMCNQCGRYFTQKGNLLRHIKL
B22: Q9UKT9 (peptide)
chain: FWCNICGAQFTQKGNLLRHIKL
B23: Q9UKT9 (peptide)
chain: FECPICGHTFTQKGNLLRHIKL
B24: Q9UKT9 (peptide)
chain: FLCNICGARFTQKGNLLRHIKL
B25: Q9UKT9 (peptide)
chain: FACEVCGARFTQKGNLLRHIKL
B26: Q9UKT9 (peptide)
chain: LLCNQCGFECTQKGNLLRHIKL
B27: Q9UKT9 (peptide)
chain: FKCNVCGAIFTQKGNLLRHIKL
B28: Q9UKT9 (peptide)
chain: FICNQCGACFTQKGNLLRHIKL
B29: Q9UKT9 (peptide)
chain: FACNQCGHFFTQKGNLLRHIKL
B30: Q9UKT9 (peptide)
chain: LLCPICGFKCTQKGNLLRHIKL
B31: Q9UKT9 (peptide)
chain: FSCDICGAEFTQKGNLLRHIKL
B32: Q9UKT9 (peptide)
chain: FDCDVCGATFTQKGNLLRHIKL
B33: Q9UKT9 (peptide)
chain: FVCEICGALFTQKGNLLRHIKL
B34: Q9UKT9 (peptide)
chain: FFCEICGANFTQKGNLLRHIKL
B35: Q9UKT9 (peptide)
chain: FMCEVCGAEFTQKGNLLRHIKL
B36: Q9UKT9 (peptide)
chain: FMCNVCGADFTQKGNLLRHIKL
B37: Q9UKT9 (peptide)
chain: FLCEQCGANFTQKGNLLRHIKL
B38: Q9UKT9 (peptide)
chain: FWCPVCGALFTQKGNLLRHIKL
B39: Q9UKT9 (peptide)
chain: FDCPQCGAAFTQKGNLLRHIKL
B40: Q9UKT9 (peptide)
chain: FDCNQCGRKFTQKGNLLRHIKL
B41: Q9UKT9 (peptide)
chain: FECDQCGAVFTQKGNLLRHIKL
B42: Q9UKT9 (peptide)
chain: FKCDQCGAFFTQKGNLLRHIKL
B43: Q9UKT9 (peptide)
chain: FLCDICGARFTQKGNLLRHIKL
B44: Q9UKT9 (peptide)
chain: FQCNVCGAGFTQKGNLLRHIKL
B45: Q9UKT9 (peptide)
chain: LDCPICGFNCTQKGNLLRHIKL
B46: Q9UKT9 (peptide)
chain: FECEICGRKFTQKGNLLRHIKL
B47: Q9UKT9 (peptide)
chain: FTCNICGAWFTQKGNLLRHIKL
B48: Q9UKT9 (peptide)
chain: FWCNVCGAVFTQKGNLLRHIKL
B49: Q9UKT9 (peptide)
chain: FSCNICGAMFTQKGNLLRHIKL
B50: Q9UKT9 (peptide)
chain: FYCNICGAGFTQKGNLLRHIKL
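Also: jurkat cells carrying a lentiviral library of mutant zinc finger degrons fused to EGFP plus mCherry, mCherry+ cells FACS sorted, degron abundance counted by next-generation sequencing.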

These sequences were tested against no compound (DMSO) (assay: log2 fold change of degron read counts, EGFP-low vs EGFP+ sorted cells; higher = lower degron-EGFP level without compound (poor expression or instability)). Details: compound: DMSO control; 18 h.
For B1, the “log2 fold change of degron read counts” value was -0.573. For B2, the “log2 fold change of degron read counts” value was 0.711. For B3, the “log2 fold change of degron read counts” value was -0.316. For B4, the “log2 fold change of degron read counts” value was 0.319. B5 was tested, and the “log2 fold change of degron read counts” value was 0.654. With B6 the “log2 fold change of degron read counts” value was 0.596. B7 was tested, and the “log2 fold change of degron read counts” value was -0.964. For B8, the “log2 fold change of degron read counts” value was 1.76. B9 was tested, and the “log2 fold change of degron read counts” value was -3.12. In the case of B10, the “log2 fold change of degron read counts” value is reported as -1.64. With B11 the “log2 fold change of degron read counts” value was -1.1. In the case of B12, the “log2 fold change of degron read counts” value is reported as -0.729. In the case of B13, the “log2 fold change of degron read counts” value is reported as -1.87. In the case of B14, the “log2 fold change of degron read counts” value is reported as 0.0239. For B15, the “log2 fold change of degron read counts” value was -1.26. B16 was tested, and the “log2 fold change of degron read counts” value was -0.0326. B17 was tested, and the “log2 fold change of degron read counts” value was -1.11. In the case of B18, the “log2 fold change of degron read counts” value is reported as 0.618. B19 was tested, and the “log2 fold change of degron read counts” value was 0.701. With B20 the “log2 fold change of degron read counts” value was -0.469. With B21 the “log2 fold change of degron read counts” value was 0.441. B22 was tested, and the “log2 fold change of degron read counts” value was -0.163. For B23, the “log2 fold change of degron read counts” value was -0.943. In the case of B24, the “log2 fold change of degron read counts” value is reported as -0.809. In the case of B25, the “log2 fold change of degron read counts” value is reported as -1.18. In the case of B26, the “log2 fold change of degron read counts” value is reported as 0.152. For B27, the “log2 fold change of degron read counts” value was 0.272. For B28, the “log2 fold change of degron read counts” value was -0.701. In the case of B29, the “log2 fold change of degron read counts” value is reported as 0.872. B30 was tested, and the “log2 fold change of degron read counts” value was 0.587. In the case of B31, the “log2 fold change of degron read counts” value is reported as -2.45. In the case of B32, the “log2 fold change of degron read counts” value is reported as -1.89. B33 was tested, and the “log2 fold change of degron read counts” value was -1.13. In the case of B34, the “log2 fold change of degron read counts” value is reported as -0.83. With B35 the “log2 fold change of degron read counts” value was -1.72. For B36, the “log2 fold change of degron read counts” value was -1.36. For B37, the “log2 fold change of degron read counts” value was -1.58. For B38, the “log2 fold change of degron read counts” value was 1.33. B39 was tested, and the “log2 fold change of degron read counts” value was -1.43. In the case of B40, the “log2 fold change of degron read counts” value is reported as 0.0364. B41 was tested, and the “log2 fold change of degron read counts” value was -2.91. For B42, the “log2 fold change of degron read counts” value was -0.556. B43 was tested, and the “log2 fold change of degron read counts” value was -1.63. For B44, the “log2 fold change of degron read counts” value was -1.35. B45 was tested, and the “log2 fold change of degron read counts” value was 0.803. B46 was tested, and the “log2 fold change of degron read counts” value was -1.84. In the case of B47, the “log2 fold change of degron read counts” value is reported as 0.544. In the case of B48, the “log2 fold change of degron read counts” value is reported as 0.987. B49 was tested, and the “log2 fold change of degron read counts” value was -0.197. B50 was tested, and the “log2 fold change of degron read counts” value was -0.138.

— the supplement of paper PMC12645437, “Orthogonal IMiD-Degron Pairs Induce Selective Protein Degradation in Cells” (ACS Chemical Biology, 2025)
